From patent US11779630B2, “Peptides and methods of using the same” (SERPIN PHARMA, LLC, priority 2020, dated 2023)

How the values were obtained:
IMG microglial cells = test: LPS induced cytokines in IMG microglial cells, multiplex assay; conditions: peptide 100 μg/ml, 24 hours, LPS 100 ng/ml
Method: (§1) FIGS. 25A-25B show the effect of SP16 on LPS induced cytokine production in murine macrophages. FIG. 25A: LPS (1 Ong/ml) was added to RAW264.7 macrophages after incubation for 1 hour with the indicated concentrations of peptide or vehicle. After 24 hours of incubation, the supernatant was assayed by ELISA for levels of TNFα or IL-6. FIG. 25B: IMG Microglial cells. SP16 (100 μg/ml), 24 hours LPS (100 ng/ml) in triplicates. Cytokines supernatant levels (pg/ml). * p-value<0.05, **, p-value<0.01.
Neuroinflammation plays a critical role in neurodegenerative disease, such as Alzheimer's Disease (AD). Reactive glia cells (such as microglial cells) play a key role in both disease initiation and progression becoming activated through dysregulated clearance of beta amyloid and other damage associated molecular patterns (DAMPs).^13 AB deposition and tau hyper-phosphorylation contribute to microglial activation, NFκB inflammatory pathway activation and release of pro-inflammatory cytokines such as TNFα, IL-6 and IL-1β, which contribute to neuronal damage and loss. […] Cytokines levels (pg/ml) in the supernatant were measured by multiplex assay.

RAW264.7 macrophages = test: LPS induced cytokine production in RAW264.7 macrophages, ELISA; conditions: peptide 1 hour before LPS, 24 hours
Method: as §1

[1] = tested on: Balb/c mice, LPS challenge; test: Inflammatory cytokines in mouse LPS challenged model (LPS 5 mg/kg); conditions: 2 hours
Method: FIG. 27B: SP16 reduced inflammatory cytokines in mouse LPS challenged model. Balb/c mice were treated with vehicle, SP16 or dexamethasone prior to LPS (5 mg/kg). The cytokines were measured in the plasma at 2 hours via ELISA and compared with those from vehicle treated group. (**p<0.001).
Using a mouse model of lethal endotoxemia, in which mice were challenged with LPS (15 mg/kg), resulting in 100% mortality by 36 hours, the assessment brings focus to the potential of SP16 to regulate the cytokine storm underlying sepsis. In this model, all mice treated with SP16 survived (100% survival between 30 and 42 hours), whereas all control mice died (no survivors by 30 hours in the vehicle control group). […] This is congruent to the outcomes from high-dose levels of dexamethasone (FIG. 27B). SP16 was consistently shown to reduce TNFα, IL-6, and IL-1β, some of the most prominent and reliable biomarkers for predicting morbidity and mortality in sepsis.

NFκB = NFκB reporter assay (THP1-XBlue-MD2-CD14 cells) stimulated with LPS, SEAP readout; conditions: for NFκB activity (NFκB inducible SEAP in supernatant): peptide 50 μg/ml, LPS 5 ng/ml, overnight (FIG. 1)
Method: The reporter cells (THP1-XBlue-MD2-CD14 cells) were treated with each peptide (50 μg/ml) before being insulted with LPS (5 ng/ml) and incubated overnight. The NFκB inducible (Secreted Embryonic Alkaline Phosphatase) SEAP was measured in the supernatant and read for absorbance.
Next, whether blocking LRP1 signaling would have a negating effect on the peptides' ability to reduce NFkB activation was evaluated. The NFkB reporter assay was used and the cells were stimulated with LPS (5 ng/ml) to induce NFkB activity.

[2] = target: recombinant LRP1-FC fusion protein (Cluster II) (Homo sapiens, UniProt Q07954); test: Direct binding to LRP1-bound protein G beads, flow cytometry; conditions: Cy5.5 labeled peptide at 1 μg/ml (FIG. 4)
Method: To confirm whether the proposed binding sequence FVFLM is where LRP1 interacts with the SERPIN peptides, SP16AALRP1 peptide having a sequence of […] (SEQ ID NO. 36) was used. […] In this assay, direct binding was assessed, as recombinant LRP1-FC fusion protein (Cluster II), was bound to protein G beads (dynabeads protein G). […] Human IgG was used as a random protein control bound to the beads.

V K F N K P F V F L M I E Q N T K (VKFNKPFVFLMIEQNTK; listed as Homo sapiens) [SP16]
IL-10 in supernatant (IMG microglial cells): highly upregulating anti-inflammatory IL-10
TNFα in supernatant (RAW264.7 macrophages): significantly reduced cytokine TNFα (p<0.05)
IL-6 in supernatant (RAW264.7 macrophages; p<0.01): significantly reduced
IL-1β and TNFα serum levels [1]: significant reduction of IL-1β and TNFα serum levels

FPKMVPQFNTELKIFPEVNIK (FPKMVPQFNTELKIFPEVNIK; peptide derivative) [SP34, reference compound]
NFκB activity (NFκB inducible SEAP in supernatant) (NFκB): neither the scrambled core control peptide nor the AAT C-36 fragment decreased the NFκB activity
binding to LRP1 bound beads (fluorescence) [2]: did not bind to LRP1 either

VKFNKAAAAAAIEQNTK (peptide derivative) [SP16AALRP1]
binding to LRP1 bound beads (fluorescence) [2]: did not bind to LRP1

SIPPEVKFNKPFVFLMIEQNTKSPLFMGKVVNP (SIPPEVKFNKPFVFLMIEQNTKSPLFMGKVVNP; listed as Homo sapiens) [SP8, reference compound]
NFκB activity (NFκB inducible SEAP in supernatant) (NFκB): neither the scrambled core control peptide nor the AAT C-36 fragment decreased the NFκB activity
NFkB induction by the peptide itself (NFκB; without LPS): showed NFkB inducible properties without the need for LPS
